The list shows a part of the results, in another mix than the full data. The list includes weakly bound sequences.

What all share (test): protein-binding microarray (PBM)
What all share (conditions): PBM: ~300 nM protein, 6 mM HEPES pH 7.8, 80 mM KCl, 0.5 mM EDTA, 0.5 mM EGTA, 6% glycerol, 35 ng/ul poly-dIdC, 1% milk, 1 h, room temperature; Ap Aiptasia and Nv Nematostella (sea anemones) / Co Capsaspora / Aq Amphimedon (sponge) / Dm Drosophila / Hu human; RHD is the Rel homology domain; high values mean tight binding; most listed sequences are background and not binding sites; double strand, one strand shown

The target in one assay is T1, GST-Ap-NF-kB RHD (UniProt A0A913YAJ5).
T1 sequence: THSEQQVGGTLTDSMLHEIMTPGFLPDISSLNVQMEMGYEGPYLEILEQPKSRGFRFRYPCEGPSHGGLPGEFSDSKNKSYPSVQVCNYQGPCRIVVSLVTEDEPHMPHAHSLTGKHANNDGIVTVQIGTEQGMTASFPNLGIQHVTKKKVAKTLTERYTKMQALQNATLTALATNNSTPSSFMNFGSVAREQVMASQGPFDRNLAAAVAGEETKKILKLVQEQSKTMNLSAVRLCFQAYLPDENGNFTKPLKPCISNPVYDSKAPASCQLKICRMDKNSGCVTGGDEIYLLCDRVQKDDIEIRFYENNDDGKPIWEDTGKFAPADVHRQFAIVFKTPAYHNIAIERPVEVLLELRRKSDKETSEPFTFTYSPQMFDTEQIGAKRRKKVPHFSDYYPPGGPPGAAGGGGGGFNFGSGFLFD

Assay [1] deals with T2, GST-Nv-NF-kB (Cys allele) (UniProt E5G601).
T2 sequence: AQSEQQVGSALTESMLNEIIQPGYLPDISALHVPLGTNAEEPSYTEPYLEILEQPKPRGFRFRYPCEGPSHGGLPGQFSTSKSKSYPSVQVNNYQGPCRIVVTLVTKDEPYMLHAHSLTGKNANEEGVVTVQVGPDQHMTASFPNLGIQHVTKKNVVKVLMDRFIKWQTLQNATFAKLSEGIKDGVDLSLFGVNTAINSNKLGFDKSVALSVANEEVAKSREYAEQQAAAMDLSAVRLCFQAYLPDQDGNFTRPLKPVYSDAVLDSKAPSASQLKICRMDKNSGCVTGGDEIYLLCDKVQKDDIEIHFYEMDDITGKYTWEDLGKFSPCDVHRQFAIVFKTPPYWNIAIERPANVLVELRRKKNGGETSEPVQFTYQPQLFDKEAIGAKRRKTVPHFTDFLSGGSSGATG

For a further assay, the target named is T3, GST-Co-NF-kB (UniProt F1ARL5).
T3 sequence: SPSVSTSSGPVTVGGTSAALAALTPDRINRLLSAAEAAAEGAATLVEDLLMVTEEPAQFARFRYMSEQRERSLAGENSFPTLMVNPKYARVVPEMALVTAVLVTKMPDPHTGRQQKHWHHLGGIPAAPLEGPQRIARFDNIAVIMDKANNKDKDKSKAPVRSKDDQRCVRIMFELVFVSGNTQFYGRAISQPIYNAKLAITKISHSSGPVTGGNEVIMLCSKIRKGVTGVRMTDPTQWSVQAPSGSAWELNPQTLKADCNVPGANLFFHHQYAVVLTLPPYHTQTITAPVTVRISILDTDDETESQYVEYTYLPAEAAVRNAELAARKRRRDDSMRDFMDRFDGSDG

Take “CCGATTAACATCACCGGAAATCCTGATGTTAATCGGGTCTTGATTCGCTTGACGCTGCTG”: the binding signal with GST-Ap-NF-kB RHD was 0.78 z-score; in assay [1], 0.361 z-score; in the assay with GST-Co-NF-kB, -0.511 z-score.
Taken in the same sequence, the figures for “CCGATTAACATCAAAAAGTTTCCTGATGTTAATCGGGTCTTGATTCGCTTGACGCTGCTG” were -0.142 z-score, 0.717 z-score and 0.79 z-score.
In the case of “CCGATTAACATCAAAAAATACCATGATGTTAATCGGGTCTTGATTCGCTTGACGCTGCTG”, the binding signal was found to be 1.11 z-score with GST-Ap-NF-kB RHD, 1.58 z-score in assay [1] and 0.813 z-score with GST-Co-NF-kB.
Taken in the same sequence, the figures for “CCGATTAACATCAAAAATTCCGTTGATGTTAATCGGGTCTTGATTCGCTTGACGCTGCTG” were -0.517 z-score, 0.189 z-score and 0.187 z-score.
The corresponding values for “CCGATTAACATCAGGGCTTTACCTGATGTTAATCGGGTCTTGATTCGCTTGACGCTGCTG” are 1.07 z-score, 2.29 z-score and -0.132 z-score.
The corresponding values for “CCGATTAACATCAGAAATTTTCCTGATGTTAATCGGGTCTTGATTCGCTTGACGCTGCTG” are 0.0756 z-score, 0.764 z-score and 0.178 z-score.
With “CCGATTAACATCAAGGAAAGTACTGATGTTAATCGGGTCTTGATTCGCTTGACGCTGCTG”, the binding signal turned out to be 0.458 z-score with GST-Ap-NF-kB RHD, 0.397 z-score in assay [1] and 0.546 z-score with GST-Co-NF-kB.
With “CCGATTAACATCAAAAATTCCACTGATGTTAATCGGGTCTTGATTCGCTTGACGCTGCTG”, the results for the binding signal (in the assay with GST-Ap-NF-kB RHD; in assay [1]; with GST-Co-NF-kB) were 0.175 z-score, 0.543 z-score and 0.0478 z-score, respectively.
Take “CCGATTAACATCAGGGGTTCCACTGATGTTAATCGGGTCTTGATTCGCTTGACGCTGCTG”: the binding signal with GST-Ap-NF-kB RHD turned out to be 2.77 z-score; in assay [1] it was 2.46 z-score; with GST-Co-NF-kB, 0.947 z-score.
The corresponding values for “CCGATTAACATCAAAAATCCCCATGATGTTAATCGGGTCTTGATTCGCTTGACGCTGCTG” are 9.63 z-score, 10.8 z-score and 5.31 z-score.
For the sequence “CCGATTAACATCACGGAATTCCGTGATGTTAATCGGGTCTTGATTCGCTTGACGCTGCTG”, the binding signal with GST-Ap-NF-kB RHD is -0.432 z-score; in assay [1], -0.206 z-score; in the assay with GST-Co-NF-kB it was -1.12 z-score.
The corresponding values for “CCGATTAACATCAGAGGAATTCCTGATGTTAATCGGGTCTTGATTCGCTTGACGCTGCTG” are 0.883 z-score, 0.907 z-score and 0.18 z-score.
Taken in the same sequence, the figures for “CCGATTAACATCAATGGGTTTCCTGATGTTAATCGGGTCTTGATTCGCTTGACGCTGCTG” were 0.711 z-score, 0.257 z-score and 0.768 z-score.
As to “CCGATTAACATCAGGGGTAACCCTGATGTTAATCGGGTCTTGATTCGCTTGACGCTGCTG”, the binding signal with GST-Ap-NF-kB RHD worked out at 4.06 z-score; in assay [1], 2.99 z-score; in the assay with GST-Co-NF-kB, 4.77 z-score.
On to “CCGATTAACATCAAAATCTTCCCTGATGTTAATCGGGTCTTGATTCGCTTGACGCTGCTG”, for which the binding signal with GST-Ap-NF-kB RHD is 5.74 z-score; in assay [1], 5.94 z-score; with GST-Co-NF-kB, 4.16 z-score.
The corresponding values for “CCGATTAACATCAAGGATTTTCCTGATGTTAATCGGGTCTTGATTCGCTTGACGCTGCTG” are -0.043 z-score, -0.00154 z-score and 0.0974 z-score.
The corresponding values for “CCGATTAACATCAATATTCCCCCTGATGTTAATCGGGTCTTGATTCGCTTGACGCTGCTG” are 8.39 z-score, 9.05 z-score and 10.4 z-score.
The corresponding values for “CCGATTAACATCAGGAATTTCCATGATGTTAATCGGGTCTTGATTCGCTTGACGCTGCTG” are 0.214 z-score, 0.67 z-score and -0.177 z-score.
Turning to “CCGATTAACATCAAGGAATGCCCTGATGTTAATCGGGTCTTGATTCGCTTGACGCTGCTG”, the binding signal is 1.68 z-score in the assay with GST-Ap-NF-kB RHD, 0.894 z-score in assay [1] and -0.191 z-score in the assay with GST-Co-NF-kB.
The corresponding values for “CCGATTAACATCACACATTCCCCTGATGTTAATCGGGTCTTGATTCGCTTGACGCTGCTG” are 6.52 z-score, 7.88 z-score and 5.83 z-score.
The corresponding values for “CCGATTAACATCAGTACTTTCCATGATGTTAATCGGGTCTTGATTCGCTTGACGCTGCTG” are -0.412 z-score, -0.524 z-score and -0.000814 z-score.
Consider “CCGATTAACATCATGGGGGAAAATGATGTTAATCGGGTCTTGATTCGCTTGACGCTGCTG”, for which the binding signal with GST-Ap-NF-kB RHD stood at 5.67 z-score; in assay [1], 6.78 z-score; in the assay with GST-Co-NF-kB, 10.9 z-score.
The corresponding values for “CCGATTAACATCAGAATTTCCCATGATGTTAATCGGGTCTTGATTCGCTTGACGCTGCTG” are 3.88 z-score, 5.46 z-score and 4.63 z-score.
The corresponding values for “CCGATTAACATCAAGTAATTTCCTGATGTTAATCGGGTCTTGATTCGCTTGACGCTGCTG” are 0.203 z-score, -0.425 z-score and 0.59 z-score.
Taken in the same sequence, the figures for “CCGATTAACATCAAGGAAAGTCCTGATGTTAATCGGGTCTTGATTCGCTTGACGCTGCTG” were 0.292 z-score, 0.954 z-score and 0.18 z-score.
For “CCGATTAACATCAATTCCCAAAATGATGTTAATCGGGTCTTGATTCGCTTGACGCTGCTG”, the binding signal with GST-Ap-NF-kB RHD was found to be 0.62 z-score; in assay [1], 2.17 z-score; with GST-Co-NF-kB, 1.45 z-score.
The corresponding values for “CCGATTAACATCAAAATTTTCCATGATGTTAATCGGGTCTTGATTCGCTTGACGCTGCTG” are -0.352 z-score, -0.442 z-score and 0.57 z-score.
The corresponding values for “CCGATTAACATCAAATTCCCCCGTGATGTTAATCGGGTCTTGATTCGCTTGACGCTGCTG” are 9.52 z-score, 8.91 z-score and 11 z-score.
Taken in the same sequence, the figures for “CCGATTAACATCAGGAAATTACATGATGTTAATCGGGTCTTGATTCGCTTGACGCTGCTG” were 0.0399 z-score, 0.331 z-score and 0.0412 z-score.
As to “CCGATTAACATCACAGGAATTCCTGATGTTAATCGGGTCTTGATTCGCTTGACGCTGCTG”, the binding signal in the assay with GST-Ap-NF-kB RHD came to 0.686 z-score; in assay [1], 0.532 z-score; with GST-Co-NF-kB, 0.104 z-score.
The corresponding values for “CCGATTAACATCAAAATTTCCGGTGATGTTAATCGGGTCTTGATTCGCTTGACGCTGCTG” are 0.618 z-score, 0.396 z-score and 0.503 z-score.
Taken in the same sequence, the figures for “CCGATTAACATCAGGGCATCCCATGATGTTAATCGGGTCTTGATTCGCTTGACGCTGCTG” were 1.37 z-score, 0.625 z-score and 0.215 z-score.
Taken in the same sequence, the figures for “CCGATTAACATCAAAAATTCCGGTGATGTTAATCGGGTCTTGATTCGCTTGACGCTGCTG” were 0.678 z-score, 0.579 z-score and -0.207 z-score.
